Source: PubChem BioAssay AID1030 (National Center for Advancing Translational Sciences (NCATS), 2008)
The whole screen tested about 220,000 compounds, of which about 16,000 (7.3%) were called active. This list was built around the results that the source calls inconclusive (neither active nor inactive); the mix of calls is not that of the screen. Calls come from the whole dose curve; as a rule, active = well fitted inhibition curve with a large enough effect (not every such curve was filed as active); inconclusive = small, poorly fitted or top-dose-only effect, or another doubt; inactive = no such curve, though single readings can be large or run the other way. Potencies of inconclusive entries are left out as doubtful fits.

biological target: Aldehyde dehydrogenase 1A1 (Homo sapiens) (UniProt P00352); test: qHTS Assay for Inhibitors of Aldehyde Dehydrogenase 1 (ALDH1A1); conditions: Purified ALDH1A1, NADH fluorescence, propionaldehyde substrate; series mostly up to 75.3 µM; activity, negative = inhibition: at the top concentration;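 for activity, negative = inhibition: plate controls were no enzyme wells and a reference inhibitor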
Potency is the fitted concentration of half-maximal effect; tags give direction and shape of the fitted curve.

UniProt P00352, sequence (P00352 whole entry, looked up): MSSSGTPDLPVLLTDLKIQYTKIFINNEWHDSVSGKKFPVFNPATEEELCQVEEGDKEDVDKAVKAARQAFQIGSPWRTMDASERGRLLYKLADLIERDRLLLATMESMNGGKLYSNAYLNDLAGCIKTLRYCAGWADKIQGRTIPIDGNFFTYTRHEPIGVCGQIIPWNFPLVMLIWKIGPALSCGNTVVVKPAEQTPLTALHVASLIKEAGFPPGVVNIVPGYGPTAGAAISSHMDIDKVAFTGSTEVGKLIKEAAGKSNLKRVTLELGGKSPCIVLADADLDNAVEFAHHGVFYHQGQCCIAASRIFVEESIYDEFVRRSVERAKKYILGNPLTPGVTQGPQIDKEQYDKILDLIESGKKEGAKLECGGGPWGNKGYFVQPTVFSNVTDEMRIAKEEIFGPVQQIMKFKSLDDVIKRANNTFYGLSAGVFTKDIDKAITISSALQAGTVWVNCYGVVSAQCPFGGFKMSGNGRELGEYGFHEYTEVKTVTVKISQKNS

Structure (SMILES) | Potency | activity, negative = inhibition
Cc1ccccc1NC(=O)C1CCN(c2cc(-c3ccccc3)nc3ncnn23)CC1 | inconclusive [inhibitor, single point] | –
COc1ccccc1NS(=O)(=O)c1cc(NC(=O)CCC(=O)c2cccs2)ccc1Cl | inconclusive [inhibitor, single point] | –
CC1(C)CC(=O)C(/C=N/c2ncccc2C(=O)O)=C(O)C1 | active: 12.6 µM | –
Cc1ccc(-n2ncc3c(=O)n(CC(=O)NCC4CCCO4)cnc32)cc1 (centres undefined) | inconclusive [inhibitor, single point] | –
O=C(O)CCSc1ccc([N+](=O)[O-])cc1[N+](=O)[O-] | inconclusive [inhibitor, single point] | –
O=C(N/C(=C/c1cn(-c2ccccc2)nc1-c1ccccc1)C(=O)N1CCOCC1)c1ccccc1 | inconclusive [inhibitor, partial curve] | –
O=C1c2ccccc2C(=O)c2c1cccc2N1CCOCC1 | – | inactive: -0.591%
CCn1c(CNC(=O)c2ccc(OC)cc2)nnc1SCC(=O)c1ccccc1 | active: 12.6 µM | –
O=C(O)CCC(=O)Nc1nnc(C(F)(F)F)s1 | – | inactive: 11%
CCCCN(CC)C(=S)Nc1ccc2nc3n(c(=O)c2c1)CCCCC3 | inconclusive [inhibitor, single point] | –
CCOC(=O)CSc1nnc(NC(=O)c2cccc(S(=O)(=O)N3CCCCC3)c2)s1 | inconclusive [inhibitor, single point] | –
CC(=O)N1CCC2(CC1)CCN(C(=O)Nc1cccc(F)c1)CC2 | active: 12.6 µM | –
COC(=O)c1c(NC(=O)C2CC2)sc2c1CCN(C(C)=O)C2 | inconclusive [inhibitor, single point] | –
O=C1CC(c2ccccc2)CC(O)=C1C=Nc1ccc(O)cc1 (centres undefined) | inconclusive [inhibitor, single point] | –
CCOc1ccc(N2C(=O)CC(Sc3ncccn3)C2=O)cc1 (centres undefined) | active: 22.4 µM | –
NC(=O)c1c(NC(=O)c2ccc(S(=O)(=O)N3CCOCC3)cc2)sc2c1CCCCC2 | inconclusive [inhibitor, single point] | –
Cc1ccc(C(=O)Nc2ncnc3sc4c(c23)CCCCC4)cc1 | inconclusive [inhibitor, single point] | –
N#CCC(=O)Nc1nc(-c2ccc3c(c2)OCCO3)cs1 | inconclusive [inhibitor, single point] | –
COC(=O)C1=C(C)NC(C)=C(C(=O)OCCNCc2ccccc2)C1c1cccc([N+](=O)[O-])c1 (centres undefined) | – | inactive: -8.47%
S=C(N/N=C/c1ccc(Cl)c(Cl)c1)Nc1ccccc1Cl | – | inactive: 6.26%
c1ccc(CSc2ncnc3c2cnn3-c2ccccc2)cc1 | inconclusive [inhibitor, single point] | –
CC(=O)N1CCN(CCN2C(C)=CC(=C(C#N)C#N)C=C2C)CC1 | inconclusive [inhibitor, single point] | –

Structure (SMILES) | Potency | activity, negative = inhibition
Cc1cc(C)c(C#N)c(SCCS(=O)(=O)Cc2ccccc2)n1 | active: 6.31 µM | –
COc1ccc(NS(=O)(=O)c2ccc(OC)c(N(C)S(=O)(=O)c3ccc(Cl)cc3)c2)cc1 | inconclusive [inhibitor, partial curve] | –
O=C(c1ccccc1)N1N=C(c2ccco2)CC1c1cccs1 (centres undefined) | inconclusive [inhibitor, single point] | –
CCOc1ccc(-c2nnc(-c3cccs3)o2)cc1OCC | inconclusive [inhibitor, partial curve] | –
CN(C)CCNC(=O)C(=O)C1C(=O)Nc2ccccc21 (centres undefined) | inconclusive [inhibitor, single point] | –
COc1ccc(NC(=O)N2CCCC3(CCN(C(C)=O)CC3)C2)cc1 | – | inactive: 1.87%
OC(CNC1CCCc2ccccc21)COc1ccc2ccccc2c1 (centres undefined) | inconclusive [inhibitor, single point] | –
Cc1ccc(C(C#N)c2ccc(C(=O)c3ccc(F)cc3)cc2)cc1 (centres undefined) | inconclusive [inhibitor, single point] | –
Cc1cccc(C)c1NC(=O)CN(c1ccccn1)S(=O)(=O)c1ccc(F)cc1 | inconclusive [inhibitor, single point] | –
CCOc1ccc2nc(NC(=O)C3CCN(c4cnccn4)CC3)sc2c1 | inconclusive [inhibitor, single point] | –
CCC(Oc1ccccc1)C(=O)O/N=C(\N)c1ccc(OC)c(OC)c1 (centres undefined) | inconclusive [inhibitor, single point] | –
[O-][n+]1onc2c1CCc1c-2nn(-c2ccccc2Cl)[n+]1[O-] | inconclusive [inhibitor, partial curve, poor fit] | –
CS/C(=N\S(=O)(=O)c1cccs1)Nc1ccc(Br)cc1F | – | inactive: 10.3%
CCOc1ccc(/C=C2/C(=N)N3OC(C)=CC3=NC2=O)cc1OC | inconclusive [inhibitor, single point] | –
CCOC(=O)N1CCN(C(=O)c2cccn3c(=O)c4cc(Br)ccc4nc23)CC1 | inconclusive [inhibitor, single point] | –
O=C(Nc1ccccc1C(=O)O)c1cccc(NC(=O)c2ccc(Br)o2)c1 | inconclusive [inhibitor, single point] | –
N#CCC(=O)Nc1ccc(C(=O)OCC(=O)Nc2ccccc2-c2ccccc2)cc1 | inconclusive [inhibitor, single point] | –
COc1ccc(S(=O)(=O)Nc2ccc(NC(C)=O)cc2)cc1 | – | inactive: 2%
O=C(CN1CCN(c2ccc(O)cc2)CC1)Nc1cc([N+](=O)[O-])ccc1Cl | active: 11.2 µM | –
CCCCCCCNC(=O)COc1ccc2c(c1)C(=O)CC(C)(C)O2 | inconclusive [inhibitor, partial curve] | –
Cc1nc(NC(=O)CSc2nc3cccnc3n2Cc2ccccc2)sc1C | – | inactive: -6.82%
Cc1cc(-c2nc3ncccc3o2)ccc1NC(=O)CC(C)C | inconclusive [inhibitor, partial curve] | –
